# Data taken from PubChem BioAssay AID1460 (National Center for Advancing Translational Sciences (NCATS), 2008).
# Several values for one entry are separate records, joined by “and”; a condition that tells them apart may be missing. Identical values can stand only once. The campaign covered roughly 270,000 compounds. About 5,800 (2.1%) were called active. The inconclusive results got no clear call from the source; some entries with a clear call stand among them for comparison. Calls follow the shape of the dose curve; as a rule, active = well fitted inhibition curve with a large enough effect; inconclusive = small, poorly fitted or top-dose-only effect; inactive = flat fitted curve, though single readings scatter. Where the call is inconclusive, the potency comes from a doubtful curve fit.
# Target: Microtubule-associated protein tau (Homo sapiens) (UniProt P10636)
# Sequence of UniProt P10636 (P10636 whole entry, looked up): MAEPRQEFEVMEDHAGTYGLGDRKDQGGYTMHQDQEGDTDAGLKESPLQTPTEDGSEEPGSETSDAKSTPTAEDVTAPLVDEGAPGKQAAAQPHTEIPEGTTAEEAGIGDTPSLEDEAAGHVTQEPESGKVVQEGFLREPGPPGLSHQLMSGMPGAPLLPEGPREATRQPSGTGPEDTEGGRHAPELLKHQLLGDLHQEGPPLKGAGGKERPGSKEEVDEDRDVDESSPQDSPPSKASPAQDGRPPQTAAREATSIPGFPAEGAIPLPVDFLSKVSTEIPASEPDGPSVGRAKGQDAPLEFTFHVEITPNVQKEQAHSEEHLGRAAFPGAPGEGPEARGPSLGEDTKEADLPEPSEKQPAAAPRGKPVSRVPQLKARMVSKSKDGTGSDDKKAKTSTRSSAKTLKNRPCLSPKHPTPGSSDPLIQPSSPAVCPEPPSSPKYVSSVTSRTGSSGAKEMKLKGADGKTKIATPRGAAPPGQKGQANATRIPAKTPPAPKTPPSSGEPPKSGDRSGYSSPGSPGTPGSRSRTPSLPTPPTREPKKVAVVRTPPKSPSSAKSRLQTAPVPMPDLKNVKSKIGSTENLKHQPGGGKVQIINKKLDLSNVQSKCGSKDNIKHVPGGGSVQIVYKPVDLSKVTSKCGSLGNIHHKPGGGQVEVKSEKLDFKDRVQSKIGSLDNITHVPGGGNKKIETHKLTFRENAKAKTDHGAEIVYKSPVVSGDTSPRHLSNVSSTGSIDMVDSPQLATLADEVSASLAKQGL
# Test: qHTS for Inhibitors of Tau Fibril Formation, Thioflavin T Binding; also: nearly all actives have a fitted effect of over 55% in size
# Settings: recombinant tau K18 P301L, heparin-induced fibrillization, ThT fluorescence; series mostly up to 57.4 µM; activity, negative = inhibition: at the top concentration
# In short: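 ThT emission at 510 nm, taken 1 hr after adding 30 uM dye, quantifies aggregates formed when 20 uM heparin acts on human tau K18 P301L for 6 hr at 37 C.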
# % is scaled to controls: 0 for no effect and ±100 for the full control effect; potency is read from the fitted curve at half-maximal effect; tags tell the direction and shape of the fitted curve.
Compound,Potency,"activity, negative = inhibition"
COc1ccc2c3c(cccc13)C(=O)N(O)C2=O,"inconclusive: 25.1 µM [inhibitor, partial curve]",
CCOCCCNC(=O)c1c[nH]c2ccc(S(=O)(=O)Nc3cccc(OC)c3)cc2c1=O,,inactive: 0.0038%
CC(=O)OCC(=O)Nc1ccc(N=Nc2ccccc2)cc1,active: 8.91 µM,
O=C(CSc1nnc(-c2ccc(O)cc2)o1)c1ccc(Br)cc1,"inconclusive: 1.58 µM [inhibitor, partial curve]",
Cc1nc2c(C(=O)NCCc3ccc(Cl)cc3)c[nH]n2c(=O)c1Cc1ccc(Cl)cc1,active: 28.2 µM,
COc1cccc(/C=N/Nc2nc3ccccc3n3cnnc23)c1,,inactive: -2.48%
COc1ccc(-n2c(Cc3cccn3C)nnc2SCC(=O)Nc2ccc3c(c2)OCO3)cc1,,inactive: -14.2%
Cc1nn(-c2ccc(F)cc2)c2sc(C(=O)N3CCCCCC3)cc12,,inactive: 0.61%
OC(COc1c(F)cc(Br)cc1F)CN1CCN(c2ccc(F)cc2)CC1 (stereo not given),"inconclusive: 20 µM [inhibitor, partial curve]",
Cc1cccc(C)c1-n1ncc(C(=O)Nc2ccc3c(c2)OCO3)c1C1CCN(C(=O)OC(C)(C)C)CC1,"inconclusive: 31.6 µM [inhibitor, single point]",
Cc1[nH]c2c([N+](=O)[O-])cccc2c1C,"inconclusive: 15.8 µM [inhibitor, partial curve]",
O=C1C2C3CCC(C3)C2C(=O)N1Cc1ccco1 (stereo not given),,inactive: 2.69%
CCCCOc1ccc(CN2C(=O)C(=O)c3cc(Br)cc(C)c32)cc1OC,active: 28.2 µM,
CCCN(CCC)c1nc(C#N)nc(N(CCC)CCC)n1,"inconclusive: 17.8 µM [inhibitor, partial curve, poor fit]",
COc1ccc(S(=O)(=O)NCCSC(C)(C)C)cc1Cl,,inactive: -5.05%
CC(C)C[C@H](N)CSSC[C@@H](N)CC(C)C,active: 5.01 µM,
CN(C(=O)CCl)C1CCCc2ccccc21 (stereo not given),,inactive: -5.46%
O=c1cnnc(SCc2ccc([N+](=O)[O-])cc2)[nH]1,"inconclusive: 25.1 µM [inhibitor, partial curve, poor fit]",
Cc1nn(C(=O)c2ccccc2F)c(C)c1S(=O)(=O)N1CCCCCC1,"inconclusive: 17.8 µM [inhibitor, partial curve]",
CCCCCSc1nc2sc3c(c2c(=O)n1-c1ccccc1)CCN(C(C)=O)C3,"inconclusive: 39.8 µM [inhibitor, single point]",
CCC(C)(C)n1nnnc1C(c1cc2cc(C)ccc2[nH]c1=O)N1CCCc2ccccc21 (stereo not given),"inconclusive: 17.8 µM [inhibitor, partial curve]",
COC(=O)c1c(-c2cccs2)csc1NC(=O)COc1c(C)ccc(C)c1C,active: 20 µM,
O=[N+]([O-])c1ccc(-c2ccc(/C=N/c3c(-c4ccco4)nc4ccccn34)o2)cc1,active: 2.82 µM,
CC(C)(C)C(=O)Nc1nc(=S)ss1,"inconclusive: 39.8 µM [inhibitor, partial curve]",
c1ccc(-c2csc(N3CCc4ccccc4C3)n2)cc1,"inconclusive: 15.8 µM [inhibitor, partial curve]",

Compound,Potency,"activity, negative = inhibition"
Oc1ccc(N=Nc2c(O)ccc3ccccc23)cc1,active: 2.51 µM,
O=C(Cc1ccc(Br)cc1)N1CCN(c2ccccc2)CC1,"inconclusive: 17.8 µM [inhibitor, partial curve, poor fit]",
O=C(COC(=O)c1ccc([N+](=O)[O-])o1)c1ccccc1,,inactive: 0.833%
CCOC(=O)C1CCN(c2c(NCc3ccc(C(=O)NC(C)CC)cc3)c(=O)c2=O)CC1 (stereo not given),,inactive: -4.96%
O=C(CSc1ccccn1)Nc1nc2ccccc2s1,,inactive: -4.01%
O=C(/C=C/c1ccccc1F)c1cccc([N+](=O)[O-])c1,"inconclusive: 17.8 µM [inhibitor, partial curve]",
CN(C)c1ccc(Nc2c3c4c(cccc4n(C)c2=O)C(=O)c2ccccc2-3)cc1,"inconclusive: 7.94 µM [inhibitor, full curve]",
Cc1c(NC(=S)/C=C2\N(C)c3ccccc3C2(C)C)c(=O)n(-c2ccccc2)n1C,"inconclusive: 31.6 µM [inhibitor, partial curve]",
CCOC(=O)Nc1ccc2c(c1)N(C(=O)CCN(C)C)c1ccccc1S2,"inconclusive: 15.8 µM [inhibitor, partial curve]",
O=C(NCc1ccco1)c1nc2c(nnn2Cc2ccccc2Cl)c(=O)[nH]1,,inactive: -0.0577%
Cc1cc(Br)ccc1NC(=O)C1CCN(S(=O)(=O)c2cccc3nsnc23)CC1,,inactive: -7.76%
CCOc1cc(NC(=O)c2ccccn2)c(OCC)cc1NC(=O)c1ccccc1,,inactive: -11.1%
CN1C(=O)C(Cl)(Cl)C(=O)c2ccccc21,active: 3.98 µM,
CCCCc1nc(NCCNC(=O)c2ccccc2)c(C#N)c2c1CSC(C)(C)C2,"inconclusive: 28.2 µM [inhibitor, single point]",
COc1ccc(CN2CCc3nc(SCC(=O)Nc4cc(C)cc(C)c4)[nH]c(=O)c3C2)cc1,,inactive: 4%
COc1ccc(-c2noc(Cn3c(=O)c4ccccc4n(CC(=O)Nc4cccc(OC)c4)c3=O)n2)cc1,,inactive: 26.6%
COc1cc(OC)cc(N2C(=O)N(CC(=O)c3ccc(F)cc3)c3ccccc3S2(=O)=O)c1,,inactive: 8.39%
CCCOC(=O)CSc1ncnc2sc3c(c12)CCC(C)C3 (stereo not given),"inconclusive: 8.91 µM [inhibitor, partial curve]",
CCn1cnc2cc(NCc3nc4ccccc4n3C)ccc21,"inconclusive: 35.5 µM [inhibitor, single point]",
CCCCCCCCCCCCCCCCOCC(CO)OC(C)=O (stereo not given),inactive,
O=C1NC2(CCCCC2)Oc2ccccc21,,inactive: -4.05%
O=c1[nH]c(-c2ccco2)nc2sc3c(c12)CCCC3,,inactive: -18.5%
C#CCCCO/N=C1/C[C@@H](O)[C@@H](O)[C@@H]2[C@@H]3C(=O)N(Cc4ccccc4)C(=O)[C@H]3CC[C@@H]12,"inconclusive: 3.55 µM [inhibitor, partial curve]",
CCN1C(=S)SC(=O)C1=C1C=C(C)N(CCOC)C(C)=C1,"inconclusive: 28.2 µM [inhibitor, partial curve]",
Cc1ccc(NC(=O)C(=O)NNC(=O)c2ccccc2C)cc1Cl,"inconclusive: 31.6 µM [inhibitor, partial curve]",

Compound,Potency,"activity, negative = inhibition"
COc1cc2ccc(=O)oc2c(OC)c1OC,,inactive: -4.11%
COC(=O)[C@@]1(Cc2ccc(F)cc2)[C@H]2c3cc(C(=O)N(C)C)n(Cc4ccccc4)c3C[C@H]2CN1C(=O)c1ccccc1,"inconclusive: 15.8 µM [inhibitor, partial curve]",
CCOC(=O)c1c(NC(=O)c2cc3nc(-c4ccc(OC)cc4)cc(C(F)(F)F)n3n2)sc2c1CCC(C)C2 (stereo not given),,inactive: 1.17%
COc1cc(C2C=C(c3cccs3)Nc3ncnn32)cc(OC)c1OC (stereo not given),"inconclusive: 39.8 µM [activator, single point]",
CC(C)N(Cc1nc(-c2ccc3c(c2)OCO3)no1)Cc1nccn1C,,inactive: 0.128%
COC(=O)c1sccc1NC(=O)Nc1ccccc1F,"inconclusive: 17.8 µM [inhibitor, partial curve, poor fit]",
CCn1c2ccccc2c2cc(/C=N/n3cnnc3)ccc21,"inconclusive: 2.82 µM [inhibitor, full curve, poor fit]",
COc1ccc(/C(N)=N/OC(=O)CCc2ccccc2)cc1,"inconclusive: 15.8 µM [inhibitor, partial curve]",
O=C(Cc1cc(=O)[nH][nH]1)N/N=C/c1cccc(Cl)c1Cl,"inconclusive: 1.58 µM [inhibitor, full curve] and inconclusive: 10 µM [inhibitor, partial curve]",
Cc1ccc(-c2nc(C3CCN(S(=O)(=O)c4ccc(C(F)(F)F)cc4)CC3)no2)cc1,,inactive: -14.2%
COc1ccc(-n2c(N)c(-c3nc4ccccc4n3C)sc2=S)cc1,"inconclusive: 2.24 µM [inhibitor, full curve]",
CCc1ccc(Cn2c(CNS(=O)(=O)c3ccc(F)c(Cl)c3)nc3cccnc32)cc1,,inactive: 0.777%
CCOc1[nH]c(/N=C/c2ccco2)c(C#N)c1C#N,"inconclusive: 22.4 µM [inhibitor, partial curve]",
COc1ccc(CCC(=O)NCc2ccco2)cc1,"inconclusive: 39.8 µM [inhibitor, single point]",
Cc1ccc(C2CC(=O)Nc3cc4c(cc32)OCCO4)cc1 (stereo not given),,inactive: -6.14%
CCCCOc1ccc(C(=O)Nc2ccc(N3CCN(C(=O)C(C)C)CC3)cc2)cc1,active: 2 µM,
Cc1ccc(OC[C@H](O)[C@H](C)NC(C)C)c2c1CCC2,,inactive: -3%
Cc1c(Cl)cccc1NC(=O)CN1C(=O)COc2ccc(S(=O)(=O)N3CCOCC3)cc21,,inactive: 4.78%
CCOC(=O)c1ccc(NC(=O)c2c(N3CCCC3=O)c3cc(OC)ccc3n2C)cc1,"inconclusive: 39.8 µM [inhibitor, single point]",
COc1ccc(C(=O)c2ccccc2)c2c(O)ccc(C(=O)c3ccccc3)c12,"inconclusive: 15.8 µM [inhibitor, partial curve]",
CCCn1c(=O)c(C(=O)OCC)c(O)c2cc(Br)ccc21,,inactive: -5.53%
Cc1nc(NC(=O)c2ccc([N+](=O)[O-])cc2Cl)sc1C(=O)N(C)C,"inconclusive: 28.2 µM [inhibitor, partial curve]",
O=C(NC1CCCCC1)N(CCO)Cc1cc2cc3c(cc2[nH]c1=O)OCCO3,,inactive: -13.2%
O=C(CSc1n[nH]c(-c2ccccc2O)n1)N1CCOCC1,,inactive: 6.37%
O=C(CSc1nccc2ccccc12)N1CCN(c2ccccn2)CC1,"inconclusive: 20 µM [inhibitor, partial curve]",
